Results: a collection of fitness landscapes (doi:10.1038/s41467-024-54723-y)
Over roughly 18,000 sequences, “TetR repression strength (sort-seq, GFP reporter)” has its median near 0.23; the highest 2% begin near 0.68. The list shows a part of the results.

The sequences below were run against TetR (class B, Tn10) (UniProt P04483) (assay: TetR repression strength (sort-seq, GFP reporter) (relative to tetO2 = 1); higher = stronger repression). Conditions: E. coli.
In short: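 Repression strength was calculated by subtracting the read-weighted mean bin from the top bin index plus one and dividing by the unaltered operator's value. The plasmid library was low-copy in E. coli SIG10-MAX, with eight randomized operator positions between a constitutive promoter and sfGFP and constitutive TetR. Cultures grew 5 h at 37 °C in LB containing 50 µg/mL chloramphenicol before 10^6 cells were sorted by FACS into 13 fluorescence bins, each sequenced on Illumina. Three independent transformations were averaged for members having ≥30 reads in all replicates and a CV ≤0.5.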

UniProt P04483, sequence (P04483 whole entry): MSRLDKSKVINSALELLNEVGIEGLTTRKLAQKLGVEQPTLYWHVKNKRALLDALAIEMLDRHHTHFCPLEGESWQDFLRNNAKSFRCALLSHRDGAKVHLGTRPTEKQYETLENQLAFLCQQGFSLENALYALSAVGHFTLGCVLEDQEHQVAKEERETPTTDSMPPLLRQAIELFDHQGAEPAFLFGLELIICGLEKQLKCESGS

Sequence | TetR repression strength
TCCCCTGCAGTAGGAGAGA | 0.233
TCCCAATGAGTAAGGGAGA | 0.276
TCCCAACGAGTCTAGGAGA | 0.251
TCCCGTTGAGTACTAGAGA | 0.02
TCCCGAGTAGTGTGTGAGA | 0.28
TCCCATGTAGTTCTCGAGA | 0.135
TCCCTATGAGTGCTTGAGA | 0.335
TCCCTAGCAGTAGGTGAGA | 0.519
TCCCAAGTAGTCTAAGAGA | 0.237
TCCCTGCAAGTCTGAGAGA | 0.211
TCCCGTAAAGTCGCTGAGA | 0.261
TCCCGGACAGTGAGTGAGA | 0.249
TCCCGGATAGTCGGAGAGA | 0.159
TCCCGTTTAGTGGGCGAGA | 0.207
TCCCTAGCAGTGTCCGAGA | 0.342
TCCCTATCAGTTTCTGAGA | 0.638
TCCCAACAAGTCTTGGAGA | 0
TCCCCCCCAGTGGATGAGA | 0.232
TCCCAGATAGTTTACGAGA | 0.311
TCCCGGGCAGTGCTGGAGA | 0.323
TCCCTCGTAGTGTTCGAGA | 0.0982
TCCCTGAGAGTACTTGAGA | 0.12
TCCCGTTAAGTGCGGGAGA | 0.183
TCCCATATAGTAAGGGAGA | 0.179
TCCCTTTCAGTTTGGGAGA | 0.925
TCCCGGCTAGTCATTGAGA | 0.385

Sequence | TetR repression strength
TCCCTTGGAGTCACTGAGA | 0
TCCCGAGCAGTTTATGAGA | 0.263
TCCCGGCCAGTGGCGGAGA | 0.234
TCCCAGTGAGTTATTGAGA | 0.284
TCCCGCCGAGTCGAGGAGA | 0.36
TCCCGGGGAGTGTCAGAGA | 0.377
TCCCTAACAGTGAATGAGA | 0.46
TCCCCCCGAGTTGGAGAGA | 0.309
TCCCCCCGAGTGACCGAGA | 0.233
TCCCATCAAGTGGGGGAGA | 0.167
TCCCAACTAGTTGACGAGA | 0.317
TCCCTTAAAGTAGGAGAGA | 0.0721
TCCCACAAAGTACGGGAGA | 0.102
TCCCAGGGAGTAGTTGAGA | 0.0889
TCCCGGAGAGTAGGAGAGA | 0.155
TCCCCGGGAGTTTTGGAGA | 0.232
TCCCCGTAAGTGCTAGAGA | 0.378
TCCCATTTAGTATGCGAGA | 0.207
TCCCAATCAGTTTGAGAGA | 0.144
TCCCGCGCAGTGTTTGAGA | 0.207
TCCCAAAGAGTGTACGAGA | 0.133
TCCCAGCTAGTGCGAGAGA | 0.0634
TCCCAACGAGTGCGGGAGA | 0.366
TCCCACCAAGTGGCGGAGA | 0.185
TCCCACAAAGTATGAGAGA | 0.37
TCCCCTGTAGTTGACGAGA | 0.0204

Sequence | TetR repression strength
TCCCAGGTAGTTCCTGAGA | 0.628
TCCCAGTTAGTAAGAGAGA | 0.102
TCCCACGTAGTCAGTGAGA | 0.0274
TCCCGATCAGTTTTTGAGA | 0.0558
TCCCTCGGAGTATGGGAGA | 0.181
TCCCGGAGAGTATGCGAGA | 0.159
TCCCGTACAGTGTTAGAGA | 0.284
TCCCTTCGAGTAGTGGAGA | 0.371
TCCCGGGGAGTGGGGGAGA | 0.3
TCCCTATTAGTTTCCGAGA | 0.348
TCCCAATGAGTATGAGAGA | 0.217
TCCCATTGAGTGTACGAGA | 0.196
TCCCGAGGAGTTGGCGAGA | 0.14
TCCCAGCTAGTACTCGAGA | 0.18
TCCCTCTAAGTAATGGAGA | 0.529
TCCCGAGTAGTGAGAGAGA | 0.418
TCCCATTGAGTGCCGGAGA | 0.301
TCCCAGAAAGTGGTGGAGA | 0.138
TCCCTGTTAGTGGGGGAGA | 0.737
TCCCTCGGAGTCAACGAGA | 0.249
TCCCGTGCAGTGTTGGAGA | 0.67
TCCCTATAAGTGGGTGAGA | 0.571
TCCCTTGCAGTGAGGGAGA | 0.251
TCCCCACGAGTCATTGAGA | 0.25
TCCCTCTCAGTACATGAGA | 0.269
TCCCTGCTAGTGCCTGAGA | 0.167

Sequence | TetR repression strength
TCCCCTCAAGTTAATGAGA | 0.126
TCCCCTCTAGTGTCGGAGA | 0.216
TCCCTGCGAGTGGGCGAGA | 0.197
TCCCACGCAGTGAATGAGA | 0.275
TCCCAAGAAGTGTGGGAGA | 0.0159
TCCCCCAAAGTGGGGGAGA | 0.213
TCCCAAGGAGTCTGGGAGA | 0.3
TCCCGGTGAGTTGCTGAGA | 0.123
TCCCCCAAAGTCGCAGAGA | 0.395
TCCCGGGGAGTAGGGGAGA | 0.219
TCCCTGAGAGTCCTCGAGA | 0.219
TCCCCGGGAGTTCCGGAGA | 0.375
TCCCGTCGAGTAATGGAGA | 0.27
TCCCGGCTAGTGTAAGAGA | 0.328
TCCCTCGGAGTGGCAGAGA | 0.182
TCCCACGAAGTGCTCGAGA | 0.586
TCCCTGCGAGTGGGTGAGA | 0.442
TCCCCGCCAGTGTACGAGA | 0.233
TCCCAGGCAGTACGAGAGA | 0.186
TCCCAGTCAGTCGCTGAGA | 0.221
TCCCAGCTAGTCGAGGAGA | 0.185
TCCCACTGAGTTTATGAGA | 0.277
TCCCCCCGAGTGGGGGAGA | 0.244
TCCCCTAAAGTGCGTGAGA | 0.39
